In the supplement of paper PMC3334620:
Whole data set: some 33,000 sequences, median “E-score (-0.5 to 0.5)” near -0.032, cut for the highest 2% near 0.36. Some of the results follow.

biological target: T1, Sko1 (UniProt Q02100); assay: PBM E-score (8-mer binding enrichment) (E-score (-0.5 to 0.5)); higher = stronger / more preferred TF binding; most listed sequences are background and not binding sites; conditions: protein concentration: 200 nM; construct: GST-full length
T1 sequence: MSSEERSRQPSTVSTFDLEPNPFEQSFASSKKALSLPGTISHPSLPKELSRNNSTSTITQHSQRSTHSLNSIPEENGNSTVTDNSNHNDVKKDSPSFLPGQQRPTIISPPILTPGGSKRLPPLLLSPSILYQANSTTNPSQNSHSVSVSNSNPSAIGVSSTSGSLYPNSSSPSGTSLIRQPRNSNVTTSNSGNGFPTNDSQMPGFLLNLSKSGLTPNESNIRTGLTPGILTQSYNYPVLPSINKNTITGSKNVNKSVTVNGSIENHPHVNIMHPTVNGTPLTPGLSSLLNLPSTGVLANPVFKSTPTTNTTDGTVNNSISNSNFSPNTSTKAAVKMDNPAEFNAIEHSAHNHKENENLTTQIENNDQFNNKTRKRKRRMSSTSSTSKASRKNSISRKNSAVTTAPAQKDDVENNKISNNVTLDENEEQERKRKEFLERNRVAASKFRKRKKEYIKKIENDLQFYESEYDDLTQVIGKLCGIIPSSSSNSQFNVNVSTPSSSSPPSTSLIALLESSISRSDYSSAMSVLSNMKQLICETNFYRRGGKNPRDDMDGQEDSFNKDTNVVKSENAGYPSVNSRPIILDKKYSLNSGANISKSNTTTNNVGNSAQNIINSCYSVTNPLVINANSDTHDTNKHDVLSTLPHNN
Summary of the method: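 E-scores (a modified Wilcoxon-Mann-Whitney statistic) were assigned by the Universal PBM Analysis Suite to every ungapped eight-base word pooled with its reverse complement. The input came from universal all-10-mer Agilent arrays made double-stranded by primer extension and probed with GST-tagged yeast transcription factors at about 100-200 nM. Fluorescent anti-GST detected bound protein, and masliner normalised the scans.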

Sequence | PBM E-score
AGAAACTG | 0.0191
AGTAAGGG | -0.17
ATCTAGTG | -0.0782
CAGATTGA | 0.12
CAATAGTG | -0.0556
GGTGGAGA | -0.302
GGAAAGCA | -0.0484
CTGGTGAC | 0.0832
GATCAAGC | 0.133
AGGGGTGG | -0.198
CAAGACTG | 0.0134
GAGCACCA | -0.276
CACACGTG | 0.386
CCGCCAAG | -0.326
CATCCGTA | 0.151
CGCCTGGC | -0.237
ACAAGACG | 0.0437
GAAGGTGA | -0.0629
ACTACTGA | -0.0569
GGGATGAA | -0.182
AAAACTTC | 0.0632
AGTGCTTC | -0.119
AGCATTAC | 0.188
ACTGCCGG | -0.291
AAAGTATC | 0.164

Sequence | PBM E-score
ATAAACCA | 0.0234
ATCGCCTC | -0.0716
AATCTCCG | -0.111
TGCCTGAA | 0.052
CTCGGCCC | -0.282
ACTCACAG | -0.115
CTCCGATC | -0.329
AGGAATAG | 0.0594
GAGGCATA | -0.0336
CATTTCAA | 0.182
GCTGGAAA | -0.163
AGCTGACC | -0.104
CGCGAACG | 0.0557
AAACGATC | -0.0574
CGGCCTCC | -0.213
GAATAGGC | -0.153
AAGGCCGA | -0.188
ACCTACGC | 0.293
AGTAACAT | 0.122
AGACGTAG | 0.382
ATGGACGC | 0.233
GATCCTCA | -0.00364
AGGGCACA | -0.0631
GGGATCCC | -0.368
ATGCCAGC | -0.11

Sequence | PBM E-score
CAGTCTCA | -0.0507
AGCATGAT | 0.0123
ACACTGAA | 0.0856
GCGACAAA | 0.0546
ATCTCAAA | 0.156
GATATCAA | 0.166
GAACTGCA | -0.0801
GACTCCAA | -0.102
TGTGGCAA | -0.0674
CATGGGAG | -0.188
CAAGACTA | 0.0299
CCTGACCA | -0.0279
GCTACAGA | -0.2
CGCGGTAG | -0.0454
CAGACTTA | 0.0358
AGATTGAA | 0.00483
TCTCCGAA | -0.136
AACATACC | 0.0441
TCATACCA | 0.201
ACAGGATA | 0.00994
GCGGTAAA | 0.0288
ATACCTCC | -0.333
ACGCTCCA | -0.0856
CCCGCCCG | -0.126
ACCTCCCC | -0.277

Sequence | PBM E-score
ATTGTCTA | 0.158
ATCTGATA | -0.155
GCAATCGC | -0.0251
AATGGCTC | -0.0633
CGTAGGCA | 0.0648
CTAATTGA | 0.0758
CCACAATA | -0.0383
ATAACAAC | 0.107
ATATTAAC | 0.192
GCTCGTTA | -0.131
CCTAACTC | 0.022
CAAACGTC | 0.329
GCATACCC | -0.185
CTCTGCCA | -0.0901
CTCGGACA | -0.211
CAGTCTCG | -0.0725
ATACAGGG | -0.113
CTCTACTA | -0.0524
ATACGCGA | 0.281
AATACGAT | 0.224
CCGATGCA | -0.13
GTTGGCGA | -0.086
CCGGATCA | -0.251
CCTGTGCC | -0.224
GATAGCGA | 0.0432

Sequence | PBM E-score
ATACCGCA | -0.0236
CTGGTCCA | -0.182
CCAGCTAG | 0.0505
AGAAGAAG | -0.281
CTCAGGCA | -0.256
ATACAGAG | -0.0247
GCCGCAAC | -0.0542
ATCAACGC | 0.0933
GGTGCCCA | -0.233
AGTACGTG | 0.365
AAAATCCC | -0.142
GCTGACAA | 0.0038
CTTGCAAC | 0.0967
AAGCCTGA | -0.151
GTACTAGA | 0.205
ACTTACAG | 0.0538
CGCGGTCA | -0.123
ACTTAGTA | 0.0606
ACATCGGG | -0.199
GAACCTAC | 0.0497
ACTCCGTC | 0.105
GCCCGAAC | -0.24
CTCTCGGC | -0.296
AAGTGGGA | 0.0345
AGCTAGCC | -0.226

Sequence | PBM E-score
CCTCAACC | -0.16
GGAAGGAA | -0.213
AGTCCCTC | -0.33
ATTCGAGA | -0.0173
AAGGTATG | -0.0471
ACTTGTGA | 0.0538
ACCCACCC | -0.0216
GGTAGTAC | -0.0421
CTCCCGCA | -0.197
GACATCAA | 0.275
AACACAAG | 0.0471
AGAAAGCA | 0.163
TGAAAACA | 0.159
ATCTATAC | 0.147
CCACTCCC | -0.334
CGGCTTGC | -0.059
AACACAGC | 0.075
GGTTGGGA | -0.0888
CAGGCGGC | -0.207
CATATCGA | 0.00288
CTCAACAC | 0.141
ACACTTAT | 0.113
ACCGTACT | 0.00383
AATCCTCT | -0.183
CACTTCAG | -0.208

Sequence | PBM E-score
ACCGTTGA | -0.16
CTGACCCC | -0.2
CACTACGC | 0.209
ATCCAGGA | -0.288
GAGCAAAA | -0.0985
CAACTGCG | -0.0192
CTCCCTCC | -0.324
AACCATAC | 0.0263
TGACTACA | 0.177
ACATTCGG | -0.158
GAACAGCC | -0.136
CAGGTAGG | -0.175
CACTTGGA | -0.0229
ACTAGTAA | 0.0995
AGAGTCAC | 0.074
AGGCCCTA | -0.223
AGATACTA | -0.0875
AGCCATCA | 0.148
GACTGAAA | -0.142
CGAAAACC | 0.117
AATATTAT | 0.205
CGTTAACC | 0.126
